According to PubChem BioAssay AID1460 (National Center for Advancing Translational Sciences (NCATS), 2008):
Hit rate of the full screen: of about 270,000 compounds, about 5,800 (2.1%) were called active. The inconclusive results got no clear call from the source; some entries with a clear call stand among them for comparison. Calls follow the shape of the dose curve; as a rule, active = well fitted inhibition curve with a large enough effect; inconclusive = small, poorly fitted or top-dose-only effect; inactive = flat fitted curve, though single readings scatter. Potencies of inconclusive entries are doubtful fits and often do not repeat.

Molecular target: Microtubule-associated protein tau (Homo sapiens) (UniProt P10636)
UniProt P10636, sequence (P10636 whole entry, looked up): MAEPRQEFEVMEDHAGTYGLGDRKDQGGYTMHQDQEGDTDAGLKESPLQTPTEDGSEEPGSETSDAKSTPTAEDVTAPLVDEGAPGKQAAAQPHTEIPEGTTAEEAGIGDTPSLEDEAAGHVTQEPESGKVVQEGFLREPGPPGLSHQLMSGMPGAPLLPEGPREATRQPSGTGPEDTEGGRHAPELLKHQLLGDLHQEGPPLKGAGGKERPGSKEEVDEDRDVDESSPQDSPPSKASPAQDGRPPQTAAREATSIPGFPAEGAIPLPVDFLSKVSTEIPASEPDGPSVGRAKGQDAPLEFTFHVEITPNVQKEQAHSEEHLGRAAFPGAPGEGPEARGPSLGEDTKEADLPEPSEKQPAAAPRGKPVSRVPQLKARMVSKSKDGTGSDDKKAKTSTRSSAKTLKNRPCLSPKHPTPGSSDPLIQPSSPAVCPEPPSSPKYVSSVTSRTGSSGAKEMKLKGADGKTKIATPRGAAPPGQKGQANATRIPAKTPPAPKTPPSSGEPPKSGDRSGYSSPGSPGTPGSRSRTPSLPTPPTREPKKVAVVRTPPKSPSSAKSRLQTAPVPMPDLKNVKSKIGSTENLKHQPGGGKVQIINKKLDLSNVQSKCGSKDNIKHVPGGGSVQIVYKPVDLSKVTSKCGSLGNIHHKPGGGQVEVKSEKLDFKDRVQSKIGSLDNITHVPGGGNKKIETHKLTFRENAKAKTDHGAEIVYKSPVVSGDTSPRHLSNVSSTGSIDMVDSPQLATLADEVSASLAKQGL
Experiment: qHTS for Inhibitors of Tau Fibril Formation, Thioflavin T Binding; also: nearly all actives have a fitted effect of over 55% in size
Settings: recombinant tau K18 P301L (four-repeat tau fragment), heparin-induced fibrillization, ThT fluorescence; series mostly up to 57.4 µM
Method in brief: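 In this qHTS, human K18 P301L tau is incubated with compound and heparin for 6 hr at 37 C, and Thioflavin T fluorescence then reports fibril load.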
% is scaled to controls: 0 for no effect and ±100 for the full control effect; potency is read from the fitted curve at half-maximal effect; tags tell the direction and shape of the fitted curve.

| SMILES | Potency | activity, negative = inhibition |
| --- | --- | --- |
| C#CCOCCOCCOCCNc1nc(N2CCN(C(=O)[C@H](Cc3cc4ccccc4[nH]3)n3cc([C@@H](N)C(C)CC)nn3)CC2)nc(N2CCN(C(=O)[C@H](Cc3cc4ccccc4[nH]3)n3cc([C@@H](N)Cc4ccc(O)cc4)nn3)CC2)n1 (some centres undefined) | inconclusive: 1.78 µM [inhibitor, single point] | – |
| Cc1[nH]c2ccccc2c1/C=N/NC(=O)Nc1ccccc1 | inconclusive: 3.16 µM [inhibitor, full curve] | – |
| CC(C)C(=O)N(c1ccc2oc(=O)sc2c1)S(=O)(=O)c1ccccc1 | inconclusive: 25.1 µM [inhibitor, partial curve] | – |
| OCC1O[C@H](O[C@H]2C(O)C(O)C(O)O[C@@H]2CO)C(O)C(O)C1O (some centres undefined) | inactive | – |
| CCC1CN(C(=O)N2CCC(C(=O)N3CCN(c4ccc(F)cc4)CC3)CC2)c2ccccc2O1 (centres undefined) | inactive | – |
| Cc1c(C(=O)Nc2ccccc2Br)oc2ccc(S(=O)(=O)N3CCOCC3)cc12 | inconclusive: 10 µM [inhibitor, partial curve] | – |
| COc1cccc(/C=N/NC(=O)CSc2nnc(C)n2-c2ccccc2)c1O | inactive | – |
| Cc1cccc(/C=N\Nc2cn[nH]c(=O)c2Cl)c1 | inconclusive: 8.91 µM [inhibitor, partial curve] | – |
| Cc1ccc(CSC2=Nc3ccccc3C3=NC(CC(=O)NCc4ccco4)C(=O)N23)cc1 (centres undefined) | inconclusive: 25.1 µM [inhibitor, partial curve, poor fit] | – |
| Cc1ccc(NC(=S)NNS(=O)(=O)c2ccc3ccccc3c2)cc1Cl | inconclusive: 20 µM [inhibitor, partial curve] | – |
| CC1CCN(S(=O)(=O)c2ccc3c(ccn3CC(=O)NCc3ccc(N(C)C)cc3)c2)CC1 | inactive | – |
| Cc1ccc(NCN2C(=O)C(=O)c3ccccc32)nc1 | inactive | – |
| O=C1/C(=C\c2ccc(-c3ccccc3[N+](=O)[O-])o2)C(c2ccccc2)=NN1c1ccccc1 | inconclusive: 15.8 µM [inhibitor, partial curve] | – |
| CNc1sc(C(=O)c2ccc(F)cc2)c(N)c1-c1nc2ccccc2s1 | active: 15.8 µM | – |
| Cc1ccc(CNc2nc(C)nc3sc4c(c23)CCC4)cc1 | inconclusive: 39.8 µM [inhibitor, single point] | – |
| O=C(NNC(=S)NC(=O)c1cccs1)c1ccc(NC(=O)c2ccccc2)cc1 | inconclusive: 4.47 µM [inhibitor, partial curve] | – |
| CCOc1cc(C)c(C(C)C)cc1S(=O)(=O)n1ccnc1CC | inactive | – |
| O=C(CNC(=O)c1ccccc1)NC1(C(=O)NC2CCCC2)CCCCC1 | inactive | – |
| O=C(N/N=C/c1ccncc1)c1cnccn1 | inactive | – |
| CCc1nnc(NS(=O)(=O)c2ccc(N=Cc3c(C)[nH]n(-c4ccc(C)cc4)c3=O)cc2)s1 | inconclusive: 17.8 µM [inhibitor, partial curve] | – |
| O=C(NCc1ccccc1Cl)c1ccc(NC(=O)c2nsc3ccccc23)cc1 | inactive | – |
| Cc1ccccc1Cn1c(=O)n(CCCCC(=O)NCc2ccccc2Cl)c(=O)c2ccccc21 | inactive | – |

| SMILES | Potency | activity, negative = inhibition |
| --- | --- | --- |
| C/C=C/c1ccc(OCCCCN2CCN(CC)CC2)c(OC)c1 | inactive | – |
| O=C(C[n+]1cc(-c2ccc(Cl)c(Cl)c2)n2c1CCC2)N1c2ccccc2Sc2ccccc21 | inconclusive: 39.8 µM [inhibitor, single point] | – |
| c1ccc2c(c1)ncn2-c1ccc(-c2ccnc3ncnn23)cc1 | inconclusive: 14.1 µM [inhibitor, partial curve] | – |
| c1ccc(-c2cn3nc4c(nc3n2)CCCC4)cc1 | inconclusive: 11.2 µM [inhibitor, partial curve] | – |
| CC(C)CNC(=O)c1c(-c2ccccc2)c(-c2ccccc2)nn(C)c1=O | inactive | – |
| COc1ccc(/C=N/NC(=O)c2ccn[nH]2)cc1COc1ccc(F)cc1 | inconclusive: 31.6 µM [inhibitor, partial curve] | – |
| Cc1cc(C)n(-c2nc(-c3ccccc3)cs2)n1 | inconclusive: 10 µM [inhibitor, partial curve] | – |
| Cc1ccc(-c2noc(-c3nnn(CC(=O)Nc4cccc(C(F)(F)F)c4)c3N)n2)cc1 | inconclusive: 12.6 µM [activator, partial curve, poor fit] | – |
| C=CCn1c(C)cc(C(=O)COC(=O)C2CC(=O)N(Cc3ccccc3)C2)c1C (centres undefined) | inconclusive: 31.6 µM [inhibitor, single point] | – |
| COc1ccccc1N1CCN(C(CNS(=O)(=O)c2cccs2)c2cccnc2)CC1 (centres undefined) | inconclusive: 44.7 µM [inhibitor, single point] | – |
| [O-][n+]1onc2c1CCc1[nH]c(-c3ccccc3)nc1-2 | inconclusive: 1.78 µM [inhibitor, full curve] | – |
| O=S1(=O)C[C@@H](O)[C@@H](Nc2ccccc2)C1 | inactive | – |
| CC(=O)Nc1sc(N/N=C\c2ccccc2)nc1-c1cccs1 | active: 10 µM | – |
| COCCCN1C(=O)C(=O)/C(=C(/O)c2ccc(C)cc2)C1/C=C/c1ccccc1 (centres undefined) | inactive | – |
| O=C(O)Cn1cc(/C=C/[N+](=O)[O-])c2ccccc21 | inconclusive: 22.4 µM [inhibitor, single point] | – |
| O=C(c1ccc(Cl)c(S(=O)(=O)N2CCCC2)c1)N1CCN(c2ccccn2)CC1 | inactive | – |
| CN(C)CCCn1cc(C2=C(c3c[nH]c4ccccc34)C(=O)NC2=O)c2ccccc21 | active: 12.6 µM | – |
| CC(=O)N1CCOc2cc(S(=O)(=O)Nc3cc(C(F)(F)F)ccc3Cl)c(C)cc21 | inconclusive: 44.7 µM [activator, single point] | – |
| Nc1nnc(SCC(=O)c2ccc([N+](=O)[O-])cc2)s1 | inconclusive: 4.47 µM [inhibitor, partial curve] | – |
| CC1(C)Cc2ccccc2C(N/N=C/c2ccc([N+](=O)[O-])cc2)=N1 | inconclusive: 2.82 µM [inhibitor, full curve] | – |
| Oc1ccc(-c2cn3c(n2)SCC3)cc1 | inconclusive: 15.8 µM [inhibitor, partial curve] | – |
| COc1ccc(-c2nc3c(c4c2C[C@H](c2ccccc2)OC4)CN(S(=O)(=O)c2ccc(C#N)cc2)CC3)c(C)c1 | – | inactive: 8.86% [at 11.5 µM] |
